Test results as given in PubChem BioAssay AID504339 (National Center for Advancing Translational Sciences (NCATS), 2011).
The campaign covered roughly 390,000 compounds. About 17,000 (4.4%) were called active. The shares of active, inactive and inconclusive entries below differ from those in the screen. Calls come from the whole dose curve; as a rule, active = well fitted inhibition curve with a large enough effect; inconclusive = small, poorly fitted or top-dose-only effect; inactive = no such curve, though single readings can be large or run the other way. A potency beside an inconclusive call is a rough fit, not a confirmed value.
Note: nearly all actives have a fitted effect of over 50% in size.
Potency is the fitted concentration of half-maximal effect; tags give direction and shape of the fitted curve.

The molecules below were run against Lysine-specific demethylase 4A (Homo sapiens) (UniProt O75164) (assay: qHTS Assay for Inhibitors of JMJD2A-Tudor Domain). Conditions: AlphaScreen JMJD2A-Tudor / H3K4me3 peptide binding; series mostly up to 114 µM.
Sequence of UniProt O75164 (O75164 whole entry, looked up, the tested form may be a part): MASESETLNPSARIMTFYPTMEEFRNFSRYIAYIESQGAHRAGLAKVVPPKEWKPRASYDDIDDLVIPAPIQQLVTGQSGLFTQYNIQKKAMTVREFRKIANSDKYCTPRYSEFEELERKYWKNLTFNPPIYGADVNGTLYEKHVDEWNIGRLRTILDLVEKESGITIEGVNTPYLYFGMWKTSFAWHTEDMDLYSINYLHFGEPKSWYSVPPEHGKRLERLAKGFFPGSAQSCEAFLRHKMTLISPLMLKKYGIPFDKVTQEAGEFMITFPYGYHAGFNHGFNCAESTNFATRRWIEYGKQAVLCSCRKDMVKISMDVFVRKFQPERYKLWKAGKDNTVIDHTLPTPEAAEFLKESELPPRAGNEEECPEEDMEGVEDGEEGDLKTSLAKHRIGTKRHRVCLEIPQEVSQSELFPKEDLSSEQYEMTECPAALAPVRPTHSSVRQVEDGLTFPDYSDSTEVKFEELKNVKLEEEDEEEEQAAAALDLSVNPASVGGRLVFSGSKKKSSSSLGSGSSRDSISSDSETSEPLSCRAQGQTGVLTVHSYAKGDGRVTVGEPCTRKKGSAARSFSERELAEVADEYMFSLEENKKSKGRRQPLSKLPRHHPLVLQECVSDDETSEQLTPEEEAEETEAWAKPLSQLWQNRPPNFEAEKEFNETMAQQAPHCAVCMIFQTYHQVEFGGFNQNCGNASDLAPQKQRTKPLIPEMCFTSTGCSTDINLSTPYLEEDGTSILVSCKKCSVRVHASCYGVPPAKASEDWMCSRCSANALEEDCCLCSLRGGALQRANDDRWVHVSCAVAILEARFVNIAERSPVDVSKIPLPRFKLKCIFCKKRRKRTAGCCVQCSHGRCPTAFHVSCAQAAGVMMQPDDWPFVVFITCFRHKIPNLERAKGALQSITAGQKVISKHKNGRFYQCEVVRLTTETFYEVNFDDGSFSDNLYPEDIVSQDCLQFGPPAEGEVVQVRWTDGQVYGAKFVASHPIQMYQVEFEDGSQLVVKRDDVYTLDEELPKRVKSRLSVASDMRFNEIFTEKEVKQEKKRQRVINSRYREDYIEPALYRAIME
For `CC1=C(C)/C(=N\OS(=O)(=O)c2ccccc2)C=CC1=O`, the Potency was active: 56.2 µM. With `Cn1c(CCc2nc3ccccc3[nH]2)n[nH]c1=S` the Potency was active: 7.94 µM. For `COc1ccc(OC)c(N=c2ssnc2Cl)c1`, the Potency was inconclusive: 35.5 µM [inhibitor, single point]. `COC(=O)c1c(NC(NC(=O)C(C)C)C(Cl)(Cl)Cl)sc2c1CCC2` (stereo not given) was tested, and the Potency was “inactive”. For `Cc1ccc(N)cc1-n1c(C)ccc1C`, the Potency was inconclusive: 56.2 µM [inhibitor, partial curve]. With `CC1CCCN(C2(O)C(=O)Nc3ccc(Br)cc32)C1` (stereo not given) the Potency was “inactive”. For `O=C(NC(=S)Nc1ccc2c(c1)OCCO2)c1ccco1`, the Potency was inconclusive: 25.1 µM [inhibitor, single point]. For `COc1nccnc1NS(=O)(=O)c1ccc(NC(=S)NC(=O)c2cccc(F)c2)cc1`, the Potency was inconclusive: 100 µM [inhibitor, single point]. For `CCc1nnc(NC(=O)c2ccc(-c3ccccc3Cl)o2)s1`, the Potency was inconclusive: 56.2 µM [inhibitor, partial curve, poor fit]. `CCc1ccc(C(=O)NNC(=O)OC)cc1` was tested, and the Potency was inconclusive: 11.2 µM [inhibitor, partial curve]. In the case of `CCOC(=O)c1c(NC(=O)CC2SC(N)=NC2=O)sc2c1CCC(C)C2` (stereo not given), the Potency is reported as inconclusive: 56.2 µM [inhibitor, partial curve]. In the case of `Cc1nc(NC(=O)c2ccccc2)sc1C`, the Potency is reported as “inactive”. For `COc1ccc(CCNC(=O)c2ccc3c(c2)nc2n3CCOC2)cc1OC`, the Potency was “inactive”. In the case of `CC(C)n1cc(/C=C2/SC(=O)N(CC(=O)N3CCCC3)C2=O)c2ccccc21`, the Potency is reported as inconclusive: 100 µM [inhibitor, partial curve]. With `O=C(c1cccc(Cl)c1Cl)N(Cc1ccco1)Cc1cccs1` the Potency was “inactive”. `O=C(Nc1sc2c(c1C(=O)O)CCC2)c1cccc(Cl)c1` was tested, and the Potency was inconclusive: 28.2 µM [inhibitor, full curve, poor fit]. For `Cc1cc(=O)[nH]c(NN=C(CC(C)C)CC(C)C)n1`, the Potency was inconclusive: 3.55 µM [inhibitor, partial curve, poor fit]. With `COc1ccc(O)c(C(=O)CC(=O)c2ccc(F)cc2)c1` the Potency was inconclusive: 56.2 µM [inhibitor, partial curve]. In the case of `Cc1ccc(/C=c2/sc3nnc(-c4ccccc4Cl)n3c2=O)o1`, the Potency is reported as active: 22.4 µM. In the case of `CN(C)c1ccc(C(=S)N2CCCCCC2)cc1`, the Potency is reported as inconclusive: 44.7 µM [inhibitor, partial curve]. In the case of `CC1(C)C2CC=C(/C=N/NC(=O)c3ccccc3Br)C1C2` (stereo not given), the Potency is reported as “inactive”. `NC(=O)C1CCCN(Cc2ccc(Cl)cc2)C1` (stereo not given) was tested, and the Potency was active: 3.16 µM. For `COc1ccc(OC)c(COC(=O)c2cccc(S(=O)(=O)N3CCCCC3)c2)c1`, the Potency was “inactive”. `C=CCN(CC=C)C(=O)COn1nnc2ccc(S(=O)(=O)N3CCOCC3)cc21` was tested, and the Potency was inconclusive: 100 µM [inhibitor, single point]. In the case of `COc1ccc(-c2nc3ccccc3s2)cc1NC(=O)c1ccccc1OC`, the Potency is reported as “inactive”. `CC1CCCC(C)N1CCCNC(=O)C(=O)Nc1ccc2nc3n(c(=O)c2c1)CCCCC3` (stereo not given) was tested, and the Potency was inconclusive: 22.4 µM [inhibitor, full curve, poor fit]. In the case of `COc1cc(/C=N/Nc2nncc3ccccc23)cc(OC)c1OC`, the Potency is reported as inconclusive: 70.8 µM [inhibitor, partial curve]. For `CC(C)c1ccc(NS(=O)(=O)c2ccc3[nH]cc(C(=O)NC4CCCCC4)c(=O)c3c2)cc1`, the Potency was inconclusive: 10 µM [inhibitor, full curve]. In the case of `CCOC(=O)c1c(C=O)c(C)n(Cc2ccc(C)cc2)c1C`, the Potency is reported as inconclusive: 56.2 µM [inhibitor, partial curve]. For `CN1/C(=C\C=N\NC(=O)c2ccccc2Br)C(C)(C)c2ccccc21`, the Potency was inconclusive: 28.2 µM [inhibitor, full curve]. `CCn1c(=O)c(C(=O)CN2CCN(S(=O)(=O)c3ccccc3)CC2)c(N)n(Cc2ccccc2)c1=O` was tested, and the Potency was inconclusive: 100 µM [inhibitor, single point]. With `CC[C@H](CO)NCCN[C@H](CC)CO` the Potency was inconclusive: 0.708 µM [inhibitor, full curve, poor fit]. In the case of `Cc1c(NC(=S)N/N=C/c2ccc([N+](=O)[O-])cc2O)c(=O)n(-c2ccccc2)n1C`, the Potency is reported as active: 44.7 µM. For `COc1ccc(-n2c(-c3ccc(Cl)cc3)cc3c2CC(C)(C)CC3=O)c(OC)c1`, the Potency was active: 14.1 µM. For `CCN(CC)C(=S)SCC(=O)c1c(C)[nH]c2ccccc12`, the Potency was inconclusive: 50.1 µM [inhibitor, single point]. In the case of `CC1=C(C(=O)Nc2ccc(C)cc2C)C(c2ccc(C(C)C)cc2)n2nc(C(F)(F)F)nc2N1` (stereo not given), the Potency is reported as inconclusive: 4.47 µM [inhibitor, full curve]. `C=CCn1cccc(C(=O)Nc2ccc(OCC)cc2)c1=O` was tested, and the Potency was inconclusive: 50.1 µM [inhibitor, partial curve]. For `CCCc1nc2c(sc3nc4c(cc32)COC(C)(C)C4)c(=O)n1CCN(CC)CC`, the Potency was “inactive”. For `CC(C)N(C(=O)COC(=O)c1cncc(Br)c1)C(C)C`, the Potency was inconclusive: 31.6 µM [inhibitor, single point]. In the case of `CC1CC2=C(NC(=S)NC2c2cccc(F)c2)/C(=C/c2cccc(F)c2)C1` (stereo not given), the Potency is reported as inconclusive: 39.8 µM [inhibitor, partial curve]. In the case of `CC(C)n1cc(/C=N/Nc2ccc(C(=O)O)cc2)c2ccccc21`, the Potency is reported as “inactive”. `Cc1cccc(-n2cc(-c3ccccc3)nc2SCC(=O)Nc2ccccc2Cl)c1` was tested, and the Potency was inconclusive: 31.6 µM [inhibitor, full curve, poor fit]. With `CCC(=NOCc1ccccc1)C(=O)NNS(=O)(=O)c1ccc(C)cc1` the Potency was inconclusive: 31.6 µM [inhibitor, partial curve]. In the case of `COc1ccc(-c2nc3ccccn3c2NC2CCCCC2)cc1SC1CCCCC1`, the Potency is reported as inconclusive: 50.1 µM [inhibitor, partial curve]. `Cc1ccc(C)c(S(=O)(=O)NCC(c2ccc(N(C)C)cc2)N2CCOCC2)c1` (stereo not given) was tested, and the Potency was inconclusive: 56.2 µM [inhibitor, partial curve].
